Data from the supplement of paper PMC8183993.
“And” between values parts separate entries of the source, which are not always exact repeats. Identical values can stand only once. Counter-ions that a name gives are not always drawn. ± gives the standard deviation of the averaged measurements. Over roughly 3,100 compounds, “mean cytoplasmic OPP incorporation (global translation) relative to DMSO” has its median near 100; the lowest 2% begin near 56. Some of the results follow.

tested on: U2OS; experiment: mean cytoplasmic OPP incorporation (global translation) relative to DMSO (% of DMSO); higher = more protein synthesis; details: 10 µM; 24 h
Method: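 Primary image-based screen in U2OS cells: compounds at 10 uM for 24 h, then a 1 h o-propargyl-puromycin (OPP) pulse, click labelling, and high-throughput microscopy. Mean cytoplasmic OPP intensity and nuclei count were normalised to DMSO wells within each plate (DMSO = 100) and averaged over triplicate plates.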

| SMILES | mean cytoplasmic OPP incorporation |
| --- | --- |
| Nc1nc(=S)c2ncn([C@@H]3O[C@H](CO)[C@@H](O)[C@H]3O)c2[nH]1 [Thioguanosine] | 61 |
| O=C1CN2Cc3c(ccc(Cl)c3Cl)N=C2N1 [Anagrelide HCl] | 103 |
| Nc1nc(Cl)nc2c1ncn2[C@@H]1O[C@H](CO)[C@@H](O)[C@@H]1F [Clofarabine] | 85.8 |
| Cc1cc(C)c(N(Cc2ccccc2)S(=O)(=O)c2ccc(OCCNC(=O)c3cc4ccccc4o3)cc2)c(C(=O)NO)c1 | 103 |
| COc1ccc(-c2cc(=O)c3c(O)cc(O)cc3o2)cc1O [Diosmetin (Luteolin 4-methyl ether)] | 116 |
| C[C@@H](N)[C@H]1CC[C@H](C(=O)Nc2ccncc2)CC1 | 101 and 99.2 |
| c1cnc2cc3c(cc2n1)[C@@H]1CNC[C@H]3C1 [Varenicline tartrate] | 102 |
| O=C(Cn1ccnc1[N+](=O)[O-])NCCO [Etanidazole] | 84.7 |
| CCc1cc(C(C)=O)c(O)cc1OCCCCCC(C)(C)c1nn[nH]n1 | 98.2 |
| C[C@H](NC(=O)c1sccc1OCc1ccc(Cl)cc1)c1ccccc1 | 107 |
| CO[C@H]1/C=C/O[C@@]2(C)Oc3c(C)c(O)c4c(c3C2=O)C2=NC3(CCN(CC(C)C)CC3)NC2=C(NC(=O)/C(C)=C\C=C\[C@H](C)[C@H](O)[C@@H](C)[C@@H](O)[C@@H](C)[C@H](OC(C)=O)[C@@H]1C)C4=O [Rifabutin] | 116 |
| CO[C@H]1/C=C/O[C@@]2(C)Oc3c(C)c(O)c4c(c3C2=O)C2=NC3(CCN(CC(C)C)CC3)NC2=C(NC(=O)/C(C)=C\C=C\[C@H](C)[C@H](O)[C@@H](C)[C@@H](O)[C@@H](C)[C@H](OC(C)=O)[C@@H]1C)C4=O [Rifabutin (Mycobutin)] | 113 |
| O=c1cc(-c2ccc(O)cc2)oc2cc(O)cc(O)c12 [Apigenin] | 103 ± 6.7 |
| CC(C)n1nc(-c2cc3cc(O)ccc3[nH]2)c2c(N)ncnc21 [Torkinib (PP242)] | 52.5 |
| NC(=O)N1c2ccccc2C=Cc2ccccc21 [Carbamazepine] | 102 |
| N#Cc1ccccc1OCC(O)CNCCNC(=O)Nc1ccccc1 (stereo not given) | 110 |
| CNc1nc(Nc2cnn([C@H]3CCN(C4COC4)C[C@@H]3F)c2Cl)ncc1C(F)(F)F | 97.9 |
| Clc1ccc(C(Cn2ccnc2)OCc2c(Cl)cccc2Cl)c(Cl)c1 (stereo not given) [Isoconazole] | 103 |
| COc1c(O[C@@H]2O[C@H](CO)[C@@H](O)[C@H](O)[C@H]2O)cc2c(c1OC)-c1ccc(SC)c(=O)cc1[C@@H](NC(C)=O)CC2 [Thiocolchicoside] | 96.4 |
| O=C(CCCCCCNC(=O)c1cnc(N(c2ccccc2)c2ccccc2)nc1)NO [Rocilinostat (ACY-1215)] | 65.8 |
| O=c1ncccn1[C@@H]1O[C@H](CO)[C@@H](O)[C@H]1O [Zebularine] | 99.5 ± 2.7 |
| CN(C)CCN(Cc1cccs1)c1ccccn1 [Methapyrilene hydrochloride] | 96.8 |
| CNC(=O)c1cc2c(cn1)[nH]c1ccccc12 | 99 |
| Cc1cc(=O)oc2cc(O)ccc12 [Hymecromone] | 98.3 |
| CCOC(=O)c1ccc(OC(=O)CCCCCNC(=N)N)cc1 [Gabexate mesylate] | 95.4 |

| SMILES | mean cytoplasmic OPP incorporation |
| --- | --- |
| CCOC(=O)c1ccc(OC(=O)CCCCCNC(=N)N)cc1 [Gabexate mesilate] | 105 |
| CSc1nc(NC2CCCC2)c([N+](=O)[O-])c(NC2CCCC2)n1 | 101 |
| CCCN[C@H]1CCc2nc(N)sc2C1 [Pramipexole] | 109 |
| CC(C)(C)Cn1c(N)nc2ccc(-c3[nH]c(C(C)(C)C)nc3-c3ccc(F)cc3)nc21 | 106 |
| CC(=O)c1ccc(S(=O)(=O)NC(=O)NC2CCCCC2)cc1 [Acetohexamide] | 106 |
| CCSC(=N)N [EIT hydrobromide] | 93 |
| CCCCC[C@H](O)/C=C/[C@@H]1[C@@H](C/C=C\CCCC(=O)O)[C@@H](O)C[C@H]1O [Dinoprost trometamol] | 97.5 |
| CC(COc1ccccc1)N(CCCl)Cc1ccccc1 (stereo not given) [Phenoxybenzamine hydrochloride] | 98 |
| Nc1ncn([C@@H]2O[C@H](CO)[C@@H](O)[C@H]2O)c(=O)n1 [Azacitidine (Vidaza)] | 116 |
| COc1ccc(CN(CCN(C)C)c2ccccn2)cc1 [Mepyramine maleate] | 96.1 |
| COc1ccc(CN(CCN(C)C)c2ccccn2)cc1 [Pyrilamine maleate] | 97.6 |
| CCCNC(C)C(=O)Nc1ccccc1C (stereo not given) [Prilocaine hydrochloride] | 96.5 |
| O=C(Nc1ccc(OC(F)(F)F)cc1)c1sccc1NCc1ccnc2ccccc12 | 116 |
| COc1cc(/C=C/C(=O)N2CCN(CC(=O)N3CCCC3)CC2)cc(OC)c1OC [Cinepazide maleate] | 104 |
| CC(C)(C)c1[nH]cnc1/C=c1\[nH]c(=O)/c(=C/c2ccccc2)[nH]c1=O [NPI-2358 (Plinabulin)] | 114 |
| Cc1scc2c1N(C(=O)CN1CCN(C)CC1)c1ccccc1NC2=O [Telenzepine dihydrochloride] | 98.4 ± 5.2 |
| c1ccc(C2CN3CCSC3=N2)cc1 (stereo not given) [Tetramisole hydrochloride] | 99.7 |
| c1ccc(C2CN3CCSC3=N2)cc1 (stereo not given) [Tetramisole HCl] | 103 |
| C=C1c2cccc(O)c2C(=O)C2=C(O)[C@]3(O)C(=O)C(C(N)=O)=C(O)[C@@H](N(C)C)[C@@H]3[C@@H](O)[C@H]12 [Methacycline hydrochloride] | 110 |
| Cn1c(=O)c2nc[nH]c2n(C)c1=O [Theophylline monohydrate] | 101 |
| CC(C)(C)NC[C@H](O)COc1nsnc1N1CCOCC1 [(S)-Timolol maleate] | 99.3 |
| CC(C)(C)NC[C@H](O)COc1nsnc1N1CCOCC1 [Timolol maleate salt] | 103 |
| Cc1ccc(C(=O)Nc2ccc(CN3CCN(C)CC3)c(C(F)(F)F)c2)cc1C#Cc1cnc2cccnn12 | 32.7 |
| O=C(Nc1cccc2c(=O)cc(-c3nnn[nH]3)oc12)c1ccc(OCCCCc2ccccc2)cc1 [Pranlukast] | 99.4 ± 5.9 |
| NCCCC[C@H](N[C@@H](CCc1ccccc1)C(=O)O)C(=O)N1CCC[C@H]1C(=O)O [Lisinopril] | 97.9 ± 5.7 |

| SMILES | mean cytoplasmic OPP incorporation |
| --- | --- |
| CC(C)[C@H]1C(=O)N[C@@H](CCCNC(=N)N)C(=O)NCC(=O)N[C@@H](CC(=O)O)C(=O)N[C@H](Cc2ccccc2)C(=O)N1C | 104 |
| O=C(c1cccc(Cl)c1F)N1CCN(Cc2cccc(Nc3nccs3)n2)CC1 | 121 |
| NC(=O)CC[C@@H](N)C(=O)O [D-glutamine] | 96.9 |
| COc1cccc(NC(=O)/C=C/c2ccc(Cl)cc2)c1 | 102 |
| CCOC(=O)OC(C)OC(=O)[C@@H]1N2C(=O)[C@@H](NC(=O)[C@H](N)c3ccccc3)[C@H]2SC1(C)C (stereo not given in full) [Bacampicillin hydrochloride] | 92.6 |
| COC1=C(OC)C(=O)C(CCCCCCCCCCO)=C(C)C1=O [Idebenone] | 101 ± 8 |
| O=C(Nc1c[nH]nc1-c1nc2ccc(CN3CCOCC3)cc2[nH]1)NC1CC1 | 65.1 |
| CCOC(=O)[C@H](CCc1ccccc1)N[C@H]1CCc2ccccc2N(CC(=O)O)C1=O [Benazepril HCl] | 82.7 |
| CCOC(=O)[C@H](CCc1ccccc1)N[C@H]1CCc2ccccc2N(CC(=O)O)C1=O [Benazepril hydrochloride] | 97.9 |
| O=c1oc(-c2ccc(C(F)(F)F)cc2)nn1Cc1cc(Cl)ccc1O | 105 |
| CN1CCCC(n2nc(Cc3ccc(Cl)cc3)c3ccccc3c2=O)CC1 (stereo not given) [Azelastine HCl] | 111 |
| CC1=CC(=O)NS(=O)(=O)O1 [Acesulfame Potassium] | 107 |
| CN(C)CCC[C@@]1(c2ccc(F)cc2)OCc2cc(C#N)ccc21 [Escitalopram] | 101 |
| CCCC(=O)Nc1ncnc2c1ncn2[C@@H]1O[C@@H]2COP(=O)(O)O[C@H]2[C@H]1OC(=O)CCC [Dibutyryl-cAMP, sodium salt] | 110 |
| CCCC(=O)Nc1ncnc2c1ncn2[C@@H]1O[C@@H]2COP(=O)(O)O[C@H]2[C@H]1OC(=O)CCC [Bucladesine sodium salt] | 96.8 |
| Cc1c(C(=O)NC2CCCCC2)sc2nc3ccc(N)cc3n12 | 106 |
| CC(C)C[C@H](NC(=O)[C@H](CCc1ccccc1)NC(=O)CN1CCOCC1)C(=O)N[C@@H](Cc1ccccc1)C(=O)N[C@@H](CC(C)C)C(=O)[C@@]1(C)CO1 [Carfilzomib (PR-171)] | 63.9 |
| O=S(=O)(c1ccccc1)c1cnc2c(N3CCNCC3)cccc2c1 | 108 |
| O=C(O[C@H]1CN2CCC1CC2)N1CCc2ccccc2[C@@H]1c1ccccc1 [Solifenacin succinate] | 107 |
| NC(=O)N/N=C/c1ccc([N+](=O)[O-])o1 [Nitrofural] | 95.9 |
| COc1ccc(S(=O)(=O)N2c3ccc(Cl)cc3[C@](O)(c3ccccc3Cl)[C@@H]2C(=O)N2CCC[C@H]2C(N)=O)cc1OC | 102 |
| CN1CCCCC1CCN1c2ccccc2Sc2ccc([S+](C)[O-])cc21 (stereo not given) [Mesoridazine besylate] | 93 |
| CO[C@@H]1[C@@H](OC(N)=O)[C@@H](O)[C@H](Oc2ccc3c(O)c(NC(=O)c4ccc(O)c(CC=C(C)C)c4)c(=O)oc3c2C)OC1(C)C [Novobiocin sodium salt] | 109 |
| Nc1nc2c(nc(Br)n2[C@@H]2O[C@@H]3COP(=O)(O)O[C@H]3[C@H]2O)c(=O)[nH]1 [8-Bromo-cGMP, sodium salt] | 95.5 |
| CN(NC(=O)CC(=O)NN(C)C(=S)c1ccccc1)C(=S)c1ccccc1 [Elesclomol] | 94.4 |
